Reference: PubChem BioAssay AID1460 (National Center for Advancing Translational Sciences (NCATS), 2008)
About 5,800 (2.1%) of roughly 270,000 compounds were called active. The inconclusive results got no clear call from the source; some entries with a clear call stand among them for comparison. Calls come from the whole dose curve; as a rule, active = well fitted inhibition curve with a large enough effect; inconclusive = small, poorly fitted or top-dose-only effect; inactive = flat fitted curve, though single readings scatter. Where the call is inconclusive, the potency comes from a doubtful curve fit. More than one record can exist for a structure, and the calls need not agree.

target: Microtubule-associated protein tau (Homo sapiens) (UniProt P10636); test: qHTS for Inhibitors of Tau Fibril Formation, Thioflavin T Binding; details: recombinant tau K18 P301L (four-repeat tau fragment), heparin-induced fibrillization, ThT fluorescence; series mostly up to 57.4 µM; activity, negative = inhibition: at the top concentration; note: nearly all actives have a fitted effect of over 55% in size
Sequence of UniProt P10636 (P10636 whole entry, looked up, the tested form may be a part): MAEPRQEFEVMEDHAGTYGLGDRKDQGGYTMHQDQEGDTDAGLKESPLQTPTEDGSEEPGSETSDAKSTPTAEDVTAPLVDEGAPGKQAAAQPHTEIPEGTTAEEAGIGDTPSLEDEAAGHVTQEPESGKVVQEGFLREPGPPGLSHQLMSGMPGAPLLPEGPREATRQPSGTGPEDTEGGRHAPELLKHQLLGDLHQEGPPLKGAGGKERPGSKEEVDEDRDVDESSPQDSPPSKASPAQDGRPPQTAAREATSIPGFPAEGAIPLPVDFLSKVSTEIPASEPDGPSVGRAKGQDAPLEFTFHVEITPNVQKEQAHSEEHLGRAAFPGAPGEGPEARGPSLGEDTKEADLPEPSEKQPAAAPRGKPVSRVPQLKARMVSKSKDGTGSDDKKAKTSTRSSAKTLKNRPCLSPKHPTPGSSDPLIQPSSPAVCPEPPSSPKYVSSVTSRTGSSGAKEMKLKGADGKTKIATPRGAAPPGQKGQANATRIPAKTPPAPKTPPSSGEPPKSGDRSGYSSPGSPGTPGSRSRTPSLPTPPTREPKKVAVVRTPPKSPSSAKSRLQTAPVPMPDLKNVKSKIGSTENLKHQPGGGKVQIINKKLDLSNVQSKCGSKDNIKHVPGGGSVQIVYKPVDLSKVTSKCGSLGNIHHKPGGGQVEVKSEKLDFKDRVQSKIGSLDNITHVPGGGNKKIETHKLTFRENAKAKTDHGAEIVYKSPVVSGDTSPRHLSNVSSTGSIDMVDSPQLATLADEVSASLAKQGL
How it was run: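 K18 P301L tau (15 uM + 0.24 uM Alexa 594-tagged), heparin 20 uM, NaOAc pH 7, 6 h 37 C; ThT 30 uM, 1 h RT, ex 450/em 510 nm.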
% is set by controls: 0 for no effect and ±100 for the full control effect; potency is the fitted concentration of half-maximal effect; tags give direction and shape of the fitted curve.

| Structure (SMILES) | Potency | activity, negative = inhibition |
| --- | --- | --- |
| CC(/C=C/c1ccccc1)=N/NC(=O)c1cccc(Br)c1 | inconclusive: 2.82 µM [inhibitor, full curve] | – |
| Cc1cc(C)c2c(=O)cc(C(=O)Nc3sc4c(c3C(=O)NCc3ccccc3)CCCC4)oc2c1 | – | inactive: -6.71% |
| CN(C)c1ccc(/C=C/c2ccc3ccccc3[n+]2C)cc1 | active: 0.562 µM | – |
| Clc1ccc(CSCCc2ccncc2)cc1 | – | inactive: -9.99% |
| COCCn1c(SCC(=O)Nc2ncc(C)s2)nc2sc3c(c2c1=O)CCC3 | inconclusive: 28.2 µM [inhibitor, single point] | – |
| COc1cccc(/C=C/C(=O)OCC(=O)NCc2ccco2)c1 | inconclusive: 17.8 µM [inhibitor, single point] | – |
| C=CCc1ccc(OCCCCNC(C)CC)c(OC)c1 (stereo unspecified) | – | inactive: 2.38% |
| Cc1cccc(C(=O)N=c2c(C#N)cc3c(=O)n4cccc(C)c4nc3n2Cc2ccco2)c1 | inconclusive: 15.8 µM [inhibitor, partial curve] | – |
| CN(C(=O)CSc1nnc2ccccn12)C1CCS(=O)(=O)C1 (stereo unspecified) | – | inactive: -4.32% |
| Cc1ccc2nc(-c3cccnc3)cc(C(=O)N3CCN(c4ccc([N+](=O)[O-])cc4)CC3)c2c1 | inconclusive: 17.8 µM [inhibitor, partial curve] | – |
| Cc1ccc(-c2csc3nc4cc(C(=O)NC5CCC(O)CC5)ccc4c(=O)n23)cc1 (stereo unspecified) | – | inactive: -8.03% |
| COc1ccc2[nH]c(C)c(CCNc3ccc(C(F)(F)F)cc3[N+](=O)[O-])c2c1 | inconclusive: 10 µM [inhibitor, partial curve] | – |
| CCOc1ccc(Nc2ccc(N3C(=O)CCC3=O)cc2[N+](=O)[O-])cc1 | active: 5.01 µM | – |
| O=[N+]([O-])c1cc(S(=O)(=O)Nc2cccc(C(F)(F)F)c2)ccc1-n1nnc2ccccc21 | inconclusive: 39.8 µM [inhibitor, partial curve] | – |
| O=C(Nc1ccc2oc(-c3ccccc3F)nc2c1)c1ccccc1Cl | inconclusive: 3.55 µM [inhibitor, single point] | – |
| N#Cc1ccc(C(=O)Nc2ccc(N3CCN(C(=O)c4ccco4)CC3)cc2)c(F)c1 | active: 1 µM | – |
| Cc1cccc(/C=N/Nc2ccc3ccccc3n2)c1 | inconclusive: 15.8 µM [inhibitor, partial curve] | – |
| COc1ccc(NC(=O)CC2C(=O)N(c3ccc(Cl)cc3)C(=S)N2CCc2ccccn2)cc1 (stereo unspecified) | – | inactive: 2.12% |
| COc1ccc(/C=C/C(=O)c2ccc(NC(=O)c3cccs3)cc2)cc1OC | inconclusive: 3.98 µM [inhibitor, full curve] | – |
| Cc1c(C(=O)N2CCCCC2C)sc2ncnc(N3CCc4ccccc4C3)c12 (stereo unspecified) | inconclusive: 39.8 µM [inhibitor, single point] | – |
| COc1cc(NC(=O)CCc2c(C)nn(-c3ccc4nncn4n3)c2C)cc(OC)c1OC | – | inactive: -0.931% |
| CC=C1C2C=C(C)CC1(N)c1ccc(=O)[nH]c1C2 (stereo unspecified) | – | inactive: 1.02% |
| CC(/C=N/N1CCN(c2ccccc2)CC1)=C\c1ccccc1 | inconclusive: 1.78 µM [inhibitor, full curve] | – |

| Structure (SMILES) | Potency | activity, negative = inhibition |
| --- | --- | --- |
| COc1cccc(-n2nc(C#N)c(Cl)cc2=O)c1 | inconclusive: 10 µM [inhibitor, partial curve] | – |
| COc1cccc(CNC(=O)c2ccc(CSc3nc4ccncc4n3Cc3cccc(C)c3)cc2)c1 | – | inactive: 12.2% |
| CCOC(=O)c1c(C)[nH]c(C(=O)OCCOc2ccccc2C)c1C | inconclusive: 7.94 µM [inhibitor, partial curve] | – |
| CCN(CC(=O)NCc1ccc(F)cc1)C(=O)/C=C/c1cccs1 | – | inactive: -4.92% |
| Cc1cc(C)nc(SCc2nnc(SCC(=O)Nc3nc(-c4ccccc4)cs3)n2C)n1 | inconclusive: 22.4 µM [inhibitor, partial curve] | – |
| CCN(C(=S)Nc1cccnc1)c1cccc2ccccc12 | inconclusive: 25.1 µM [inhibitor, partial curve] | – |
| O=C(Nc1ccc2nc(SCC(=O)N3CCCc4ccccc43)sc2c1)c1cccc(F)c1 | – | inactive: 1.3% |
| Nc1ccccc1C(=O)/C=C/c1ccc2c(c1)OCO2 | active: 14.1 µM | – |
| Fc1ccc(NC(=S)N2CCn3cccc3C2c2cccnc2)cc1 (stereo unspecified) | – | inactive: -9.46% |
| CCOc1ccc2c(c1)-c1c(ssc1=S)C(C)(C)N2C(=O)CSC1=NCCS1 | inconclusive: 11.2 µM [inhibitor, partial curve] | – |
| Cn1ccnc1SCC(=O)n1c2c(c3ccccc31)CCCC2 | inconclusive: 28.2 µM [inhibitor, single point] | – |
| COc1ccc(/C=N/NC(=O)c2cc(-c3cccn3C)n[nH]2)cc1OC | inconclusive: 2.24 µM [inhibitor, full curve] | – |
| Cc1nn2c(c1-c1ccccc1)N=C(c1ccco1)CC2c1ccccc1 (stereo unspecified) | inconclusive: 31.6 µM [inhibitor, single point] | – |
| COc1ccc(NCC(O)COc2ccc(C(C)(C)C)cc2)cc1 (stereo unspecified) | inconclusive: 11.2 µM [inhibitor, partial curve] | – |
| COc1ccc(N2CCN(C(=O)c3cccc(N4C(=O)C5CC=CC(C)C5C4=O)c3)CC2)cc1 (stereo unspecified) | inconclusive: 14.1 µM [inhibitor, partial curve, poor fit] | – |
| CCOc1ccc(-c2nc(CSCC(=O)N3CCN(c4cccc(C(F)(F)F)c4)CC3)c(C)o2)cc1 | inconclusive: 14.1 µM [inhibitor, partial curve] | – |
| C=CCn1c(O)c(CN2CCCCC2)c(C)c(C#N)c1=O | active: 25.1 µM | – |
| O=C(CSc1ncc(S(=O)(=O)c2ccc(Br)cc2)c(=O)[nH]1)NCc1ccc(Cl)cc1 | inconclusive: 12.6 µM [inhibitor, partial curve] | – |
| O=C(CSc1nc2ccccc2c(=O)n1-c1ccccc1)N/N=C/C=C/c1ccccc1[N+](=O)[O-] | – | inactive: -11.8% |
| CCS(=O)(=O)N1CCN(C(=O)c2ccco2)CC1 | – | inactive: -5.38% |
| Cc1ccc(Cl)c2c1N[C@@H](c1ccc(C(=O)O)cc1)[C@H]1CC=C[C@@H]21 | inconclusive: 20 µM [inhibitor, partial curve] | – |
| C=CCN1C(=O)N/C(=C/c2ccc(N3CCOCC3)o2)C1=O | active: 7.94 µM | – |
| CCCN1C(=O)/C(=N\OCC(=O)NCC(F)(F)F)c2ccccc21 | – | inactive: -11% |
